# In the supplement of paper PMC7826260:
# The list shows a part of the results. The data describe in vitro nicking of single-stranded DNA by Rep domains (3 µM enzyme, 1 h, 37 °C); shown is the middle of each 90-letter strand. Uncut reads are compared with the no-enzyme pool on a log2 scale; strong cutting gives strongly negative numbers. There is no active / inactive call. Reads are scaled to the total, so uncut sequences can rise above 0 when many others are cut.
# Experiments:
# Assay in all cases: uncleaved DNA left, log2 of reads against the no-enzyme library (log2 ratio); higher = less cleavage (more negative = more Rep cleavage of the k-mer); sequences stand for … in CTCGTCCG…ACCGGAGA
# [1] = system: T1, Rep nickase domain of Muscovy duck circovirus
# T1 sequence (protein, residues 1-111, tag omitted): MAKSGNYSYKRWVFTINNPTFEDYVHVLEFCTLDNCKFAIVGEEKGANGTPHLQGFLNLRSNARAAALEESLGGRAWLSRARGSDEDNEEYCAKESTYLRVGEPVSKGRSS
# Description: (§1)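 A pool of 90-nt single-stranded DNAs with seven random bases just before the constant AC of the nick site (name = the seven bases) was cut by 3 µM recombinant His6-SUMO-tagged Rep nickase domain (300 nM DNA, 50 mM HEPES pH 8.0, 50 mM NaCl, 1 mM MnCl2, 1 h, 37 °C, three replicates). Uncut DNA was amplified and sequenced.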
# [2] = system: T2, Rep nickase domain of banana bunchy top virus
# T2 sequence (protein, residues 1-94, tag omitted): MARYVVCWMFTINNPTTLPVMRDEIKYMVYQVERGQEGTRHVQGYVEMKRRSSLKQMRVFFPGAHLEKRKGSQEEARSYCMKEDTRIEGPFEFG
# Description: as §1
# [3] = system: T3, Rep nickase domain of cabbage leaf curl virus
# T3 sequence (protein, residues 1-116, tag omitted): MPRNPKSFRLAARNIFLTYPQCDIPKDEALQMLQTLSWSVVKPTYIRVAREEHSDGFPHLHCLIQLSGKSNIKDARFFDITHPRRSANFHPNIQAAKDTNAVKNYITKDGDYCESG
# Description: as §1
# [4] = system: T4, Rep nickase domain of chickpea chlorotic dwarf virus
# T4 sequence (protein, residues 1-124, tag omitted): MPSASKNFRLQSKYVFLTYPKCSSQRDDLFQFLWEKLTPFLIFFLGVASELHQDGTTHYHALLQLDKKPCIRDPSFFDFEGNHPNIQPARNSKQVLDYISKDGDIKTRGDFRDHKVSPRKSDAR
# Description: as §1
# [5] = system: T5, Rep nickase domain of faba bean necrotic yellows virus
# T5 sequence (protein, residues 1-98, tag omitted): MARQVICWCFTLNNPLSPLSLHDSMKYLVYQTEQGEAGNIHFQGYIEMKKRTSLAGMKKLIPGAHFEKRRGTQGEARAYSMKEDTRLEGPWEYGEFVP
# Description: as §1
# [6] = system: T6, Rep nickase domain of maize striate mosaic virus
# T6 sequence (protein, residues 1-117, tag omitted): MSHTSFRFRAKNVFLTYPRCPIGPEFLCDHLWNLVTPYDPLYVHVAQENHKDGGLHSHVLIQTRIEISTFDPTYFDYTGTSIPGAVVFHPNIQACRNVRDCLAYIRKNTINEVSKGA
# Description: as §1
# [7] = system: T7, Rep nickase domain of porcine circovirus 2
# T7 sequence (protein, residues 2-116, tag omitted): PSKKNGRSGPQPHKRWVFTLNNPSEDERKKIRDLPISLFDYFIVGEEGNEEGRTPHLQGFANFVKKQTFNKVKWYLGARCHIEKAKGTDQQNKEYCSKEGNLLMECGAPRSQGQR
# Description: as §1
# [8] = system: T8, Rep nickase domain of tomato yellow leaf curl virus
# T8 sequence (protein, residues 1-136, tag omitted): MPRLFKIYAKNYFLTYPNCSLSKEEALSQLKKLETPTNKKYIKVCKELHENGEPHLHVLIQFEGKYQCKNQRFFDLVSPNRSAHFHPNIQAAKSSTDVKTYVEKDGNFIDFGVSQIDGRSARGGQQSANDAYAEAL
# Description: as §1
# [9] = system: T9, Rep nickase domain of wheat dwarf virus
# T9 sequence (protein, residues 1-137, tag omitted): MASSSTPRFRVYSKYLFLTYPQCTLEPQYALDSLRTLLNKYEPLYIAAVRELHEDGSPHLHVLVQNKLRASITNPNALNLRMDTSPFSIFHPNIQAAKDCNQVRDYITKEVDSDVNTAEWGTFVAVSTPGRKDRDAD
# Description: as §1
Sequence,uncleaved DNA left (log2) [1],uncleaved DNA left (log2) [2],uncleaved DNA left (log2) [3],uncleaved DNA left (log2) [4],uncleaved DNA left (log2) [5],uncleaved DNA left (log2) [6],uncleaved DNA left (log2) [7],uncleaved DNA left (log2) [8],uncleaved DNA left (log2) [9]
TATCTCT,-0.12,-0.168,-0.479,-2.84,-0.0348,0.161,-0.932,-0.0263,-0.167
TCACGGG,-0.0742,-0.0581,-0.177,-0.0241,-0.0851,-0.57,0.117,-0.0715,-0.12
AGACACT,0.0947,-0.0303,0.761,1.41,0.0106,2.12,0.0272,0.11,0.145
AATTGAC,-0.0552,-0.161,-0.366,-0.26,0.0199,-1.09,0.0982,0.000444,-0.0685
ATAACGG,-0.154,-0.0389,0.225,1.07,-0.105,1.14,0.101,-0.221,0.016
AGGTTCT,-0.388,0.0762,0.0693,-0.849,0.0177,0.462,-2.92,0.127,0.201
GTGCACC,0.0289,0.0608,0.223,0.817,0.012,1.71,0.0435,0.0963,0.0464
GTAACCA,0.00394,0.0188,0.185,0.502,-0.0854,1.5,-0.0809,0.0588,0.112
ACGACAG,0.0542,0.11,-0.0995,0.216,0.0679,-0.0322,0.172,0.142,0.124
CGGCACC,0.0196,0.0062,0.0912,0.4,-0.233,0.321,-0.0827,-0.0284,0.115
CTAACGT,0.126,0.115,-0.2,-0.607,0.1,-0.632,0.14,0.000225,0.12
TGCAAGA,0.172,0.0858,0.009,-0.0642,0.0611,-0.861,0.218,0.148,-0.00469
AGCACCT,0.0841,0.0641,0.0708,-0.228,1.39e-05,0.972,-0.203,-5.92e-05,0.0808
CCCAGGA,0.0756,0.0364,0.114,0.707,-0.0528,-0.0677,-0.00763,-0.126,-0.0762
GGTACGA,0.0679,0.145,0.773,1.84,-0.093,2.07,0.244,0.142,0.162
ACTGTTC,0.0129,-0.0279,-0.101,0.0949,-0.0384,0.0296,-0.0105,0.0407,0.101
GCGTACC,0.00446,-0.0987,-0.000648,0.077,-0.0662,0.211,-0.181,-0.0483,0.0519
TACAAGA,-0.0322,-0.00209,-0.0854,-0.752,0.0427,-0.892,0.00769,-0.00556,0.0182
AAAATCT,-0.066,-0.0919,-3.14,-2.85,0.0265,-1.13,-1.48,0.0564,-1.24
ACATAGT,-1.3,-0.061,-0.668,-1.28,-0.0545,-1.22,-3.05,-0.0343,-0.171

Sequence,uncleaved DNA left (log2) [1],uncleaved DNA left (log2) [2],uncleaved DNA left (log2) [3],uncleaved DNA left (log2) [4],uncleaved DNA left (log2) [5],uncleaved DNA left (log2) [6],uncleaved DNA left (log2) [7],uncleaved DNA left (log2) [8],uncleaved DNA left (log2) [9]
ATCTCCA,-0.0241,0.0602,-0.228,-0.283,0.0588,1.16,0.0417,0.0355,-0.0279
CCTCACC,-0.0904,-0.0707,0.0476,-0.372,0.0608,-0.367,-0.0969,0.0177,0.131
GGTACCT,-0.0778,0.0562,0.493,1.19,-0.149,1.87,-0.0552,-0.0541,0.124
GGCCAGT,0.122,0.196,0.585,1.42,0.0436,1.95,0.146,0.0795,0.17
ACGCGAT,-0.0905,-0.126,-0.536,-0.378,0.146,-0.79,0.143,-0.104,-0.2
CTCGCCT,-0.0329,-0.02,-0.127,-1.54,-0.0023,-0.528,-0.464,-0.0715,-0.215
TGGGCGA,0.0826,0.0509,0.124,0.423,0.164,0.0101,0.211,0.079,0.017
CAAAGTG,0.0126,0.029,-0.704,-0.988,0.0531,-1.17,0.152,0.0359,-0.0221
GCATTAC,-0.0974,-0.0257,-0.103,-0.664,0.00337,-0.441,0.0498,0.0214,-0.0503
AAAACCG,-0.0567,-0.000248,-0.787,-0.299,0.0613,-1.07,0.106,-0.0211,-0.038
AAAAATA,-0.0409,0.00463,-0.442,-2.74,-0.0181,-0.744,-0.147,-0.0847,-0.0377
AGGGGGT,0.0935,0.128,0.332,1.45,-0.0391,1.7,0.177,-0.0846,0.0868
TGACACG,0.0599,-0.0513,-0.692,-0.657,-0.0176,-1.01,0.215,0.00896,0.00617
GGGTATG,0.0703,0.0405,0.784,1.74,-0.062,2.06,0.138,-0.0116,0.0836
GTAAAAC,-0.0102,0.0711,0.264,0.773,-0.0025,1.36,0.0655,0.164,0.0539
AGAGAAT,0.0269,0.0652,0.113,0.888,-0.0597,1.48,0.0779,-0.035,0.153
ACTCGGT,0.172,0.149,-0.0978,-0.0541,0.157,-0.417,0.116,0.101,0.123
CGCTCGC,-0.0523,0.0247,-0.204,-0.534,0.0569,-0.726,0.0867,-0.116,0.0451
CGTTGTT,-2.76,-0.685,-0.444,-1.95,-0.158,-0.83,-2.75,-0.0377,-0.337
AGGAAGG,-0.109,-0.108,-0.0656,0.48,-0.0229,0.187,0.0281,-0.161,-0.0719

Sequence,uncleaved DNA left (log2) [1],uncleaved DNA left (log2) [2],uncleaved DNA left (log2) [3],uncleaved DNA left (log2) [4],uncleaved DNA left (log2) [5],uncleaved DNA left (log2) [6],uncleaved DNA left (log2) [7],uncleaved DNA left (log2) [8],uncleaved DNA left (log2) [9]
TGAACTA,-0.009,0.0466,0.137,-0.649,-0.0283,0.127,-0.0387,0.149,0.022
AAAAAAT,-0.115,-0.0454,-1.49,-2.5,-0.0475,-0.392,-1.06,-0.224,-0.45
TAATCGC,-0.0232,0.0273,-3.61,-2.86,0.0757,-2.64,0.0415,-0.0081,-3.12
TTCGCTG,0.0138,-0.0308,0.143,0.65,-0.116,1.06,0.0155,-0.193,-0.126
TGGAATG,0.0434,0.00933,-0.0167,0.383,0.0285,0.514,0.00116,0.0379,0.113
TGAGGTT,0.0981,0.0695,0.517,1.23,0.0604,1.9,0.301,0.103,0.0818
AAATTGG,0.0574,0.0306,-0.677,-0.747,0.0515,-1.21,0.111,0.0282,-0.0632
GCGGTTT,0.0267,0.0494,0.639,1.16,-0.231,1.89,0.0945,0.142,0.122
GGTAACC,0.117,0.0946,0.429,1.02,-0.0108,1.75,0.0403,0.172,0.144
ATGGGAA,-0.0516,-0.117,0.219,1.19,-0.103,1.48,0.0388,-0.238,-0.0621
GAGCCTG,0.144,0.0415,0.116,0.762,0.0403,1.68,0.0866,0.0327,0.161
TATATTG,-0.0567,-0.0628,-0.506,-0.657,-0.0131,-1.2,0.0349,-0.0374,-0.0686
AATTATG,-0.104,-0.125,-0.614,-0.594,-0.0954,-1.07,0.0524,0.0126,-0.0788
TGATAAG,0.0645,0.125,-0.333,0.0761,0.1,-0.242,0.0788,0.127,0.0138
AATACTT,-1,-3.36,-1.81,-2.89,-0.0656,-0.596,-3.46,-0.0967,-0.304
AAGTGGT,-0.171,-0.147,0.132,1.32,-0.135,1.75,-3.62,-0.166,-0.0676
GCCGGTC,0.111,-0.104,0.394,0.574,-0.0453,0.564,0.165,0.0767,-0.11
TGAGCCC,-0.0176,-0.044,0.191,0.334,-0.0713,0.261,-0.0673,-0.0868,-0.0173
CGATAGC,0.0294,0.0191,0.104,0.579,-0.0907,0.111,0.096,0.0583,0.0607
TAGTCTT,-3.39,-3.31,-3.41,-3.03,-3.57,-0.555,-3.94,0.0481,-1.52
